# Source: PubChem BioAssay (NCATS)
# Some of the results follow. These are further read-outs of the screen, such as a control signal, another cell line or another target. No call is given for them. Compounds called inactive in the main read-out are mostly missing here. Words in brackets tell the shape of the fitted curve; partial curves, single points and poor fits give uncertain potencies.
# Test: qHTS Assay for Lipid Storage Modulators (AID 1519)
# Settings: Drosophila S3 cells, BODIPY lipid droplet/cell ratio, laser cytometry, cells loaded with oleic acid
# Outline: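 Cells seeded at 5,000 per well were treated with compounds over a concentration series and loaded with oleic acid (400 uM, as added). Lipid droplet fluorescence (488 nm excitation, 500-530 nm channel) was read by laser-scanning cytometry and normalized to 20 uM Triacsin C.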
# [1] = measured here: cell count channel max response
# [2] = measured here: cell number channel AC50
# [3] = measured here: lipid (BODIPY) channel AC50
# [4] = measured here: lipid channel max response
# Tags describe the fitted curve by direction and shape.
SMILES,max response [1] [%],AC50 [2],AC50 [3],max response [4] [%]
COc1cc2c(cc1OC)C1C(=O)c3c(O)cc4c(c3OC1CO2)C=CC(C)(C)O4 (centres undefined),-59.3,"12.6 µM [falling, partial curve]","1.41 µM [falling, full curve]",-104
Cn1cc(-c2nc3cnc(OCc4ccccc4)nc3n(CCC#N)c2=O)c2ccccc21,30.9,"2.82 µM [rising, full curve]","2.82 µM [rising, full curve]",39.6
Cc1cccc(-c2cc(=O)c3cc(C)ccc3o2)c1,86.9,"3.16 µM [rising, full curve]","2.82 µM [rising, full curve]",115
O=c1c(CCc2ccccc2)nc2cnc(Oc3cccc(Cl)c3)nc2n1C[C@H]1CCCO1,27.4,"1.41 µM [rising, partial curve, poor fit]","1.12 µM [rising, partial curve, poor fit]",18.1
CN(C)C1C(=O)C(C(N)=O)=C(O)[C@@]2(O)C(=O)C3=C(O)c4c(O)ccc(Cl)c4[C@@H](O)C3C[C@@H]12 (some centres undefined),-68.3,"35.5 µM [falling, partial curve, poor fit]","11.2 µM [falling, partial curve, poor fit]",-72.6
O=c1c(-c2cc(F)cc(F)c2)nc2cnc(N3CCOCC3)nc2n1Cc1ccc(F)cc1,35.4,"5.01 µM [rising, partial curve]","4.47 µM [rising, partial curve, poor fit]",41.7
